Our source for the binding values is article PMC8346517.

Amino acid sequences for entries named in this document (tags omitted). A change or cut given only in a name is not applied to a line headed by its entry.
UniProt P17839: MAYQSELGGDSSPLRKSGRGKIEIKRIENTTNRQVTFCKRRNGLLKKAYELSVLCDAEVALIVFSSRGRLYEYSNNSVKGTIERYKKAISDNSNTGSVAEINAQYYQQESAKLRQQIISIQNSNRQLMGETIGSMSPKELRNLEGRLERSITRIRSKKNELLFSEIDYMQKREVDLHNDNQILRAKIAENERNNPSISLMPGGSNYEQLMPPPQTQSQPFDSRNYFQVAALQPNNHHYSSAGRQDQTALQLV
UniProt P35631: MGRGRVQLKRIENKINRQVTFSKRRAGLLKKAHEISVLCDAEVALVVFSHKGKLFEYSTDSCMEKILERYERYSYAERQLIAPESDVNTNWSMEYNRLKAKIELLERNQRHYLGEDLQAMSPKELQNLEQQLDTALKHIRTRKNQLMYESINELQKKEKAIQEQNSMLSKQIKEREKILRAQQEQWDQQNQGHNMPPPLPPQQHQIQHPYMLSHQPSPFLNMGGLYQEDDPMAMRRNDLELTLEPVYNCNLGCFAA

These are yes or no findings as the source states them, for the method shown. For part of these data: In cells and extracts the contact can be indirect. Some binding calls cover weakened binding; strength is not graded here. Sequences can lack the tags named with a protein.

For assay [1], the target named is T1, AGL80^M(1-61)-3FLAG (Arabidopsis thaliana) (UniProt Q9FJK3).
T1 sequence: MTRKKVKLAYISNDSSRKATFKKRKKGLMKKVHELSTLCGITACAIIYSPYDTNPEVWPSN
Description: pull-down; both constructs co-translated in wheat germ extract (double input reaction), completed with PBS (150 mM sodium phosphate pH 7.2, 150 mM NaCl), anti-Myc or anti-FLAG magnetic beads, 1 h at 4 °C, four washes, western blot with anti-c-Myc and anti-FLAG. On the technique in general: Immunoblotting shows a protein as a band on a membrane.

Assay [2] addresses T2, PHE^M(1-60)-3FLAG (Arabidopsis thaliana) (UniProt O80805).
T2 sequence: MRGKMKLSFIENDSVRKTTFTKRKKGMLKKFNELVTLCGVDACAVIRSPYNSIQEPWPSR
The assay is described as above.

Assay [3] concerns the target AG^IAP1 (AG with residues 74-107 replaced by residues 58-92 of AP1), yeast two-hybrid fusion (Arabidopsis thaliana) (UniProt P17839+P35631). Description: two-hybrid; matrix-based Gal4 yeast two-hybrid, targets in both bait and prey vectors; 7 days at 20 °C; scored positive only with growth on all three selective media (-LWH + 1 mM 3-AT, -LWH + 5 mM 3-AT, -LWA) and in both replica.

Assay [4] concerns the target AGAMOUS (AG), yeast two-hybrid fusion (Arabidopsis thaliana), P17839. The description is as above. The following applies: remark: other sources report otherwise.
Assay [5] has as its target T3, PHE^MI(1-95)-3FLAG (Arabidopsis thaliana) (UniProt O80805).
T3 sequence: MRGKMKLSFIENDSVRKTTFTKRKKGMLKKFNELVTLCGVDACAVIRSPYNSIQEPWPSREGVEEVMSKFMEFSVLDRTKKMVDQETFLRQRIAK
In words: pull-down; both constructs co-translated in wheat germ extract (double input reaction), completed with PBS (150 mM sodium phosphate pH 7.2, 150 mM NaCl), anti-Myc or anti-FLAG magnetic beads, 1 h at 4 °C, four washes, western blot with anti-c-Myc and anti-FLAG.

Assay [6] addresses T4, AGL80^MI(1-88)-3FLAG (Arabidopsis thaliana) (UniProt Q9FJK3).
T4 sequence: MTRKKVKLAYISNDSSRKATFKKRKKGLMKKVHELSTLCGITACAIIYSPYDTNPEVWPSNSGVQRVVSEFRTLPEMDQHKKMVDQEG
The description is as above.

B1: AGL61^M(63-122)-5Myc (domain or fragment, UniProt Q4PSU4 63-122)
chain: GRQKIPMVKIKKESHRQVTFSKRRAGLFKKASELCTLCGAEIGIIVFSPAKKPFSFGHPS
Consider B1, for which the binding entry in assay [1] and in assay [2] was “no binding” throughout.

B2: AGL24, yeast two-hybrid fusion (protein, UniProt O82794 1-220)
chain: MAREKIRIKKIDNITARQVTFSKRRRGIFKKADELSVLCDADVALIIFSATGKLFEFSSSRMRDILGRYSLHASNINKLMDPPSTHLRLENCNLSRLSKEVEDKTKQLRKLRGEDLDGLNLEELQRLEKLLESGLSRVSEKKGECVMSQIFSLEKRGSELVDENKRLRDKLETLERAKLTTLKEALETESVTTNVSSYDSGTPLEDDSDTSLKLGLPSWE
With B2, in assay [3], the binding result is recorded as “binds”.

B3: AGL24, yeast two-hybrid fusion, O82794 1-220 (protein)
chain: B2 chain
As to B3, in assay [4], the binding result is on record as “no binding”.

B4: AGL61^MI(63-155)-5MyC (domain or fragment, UniProt Q4PSU4 63-155)
chain: GRQKIPMVKIKKESHRQVTFSKRRAGLFKKASELCTLCGAEIGIIVFSPAKKPFSFGHPSVESVLDRYVSRNNMSLAQSQQLQGSPAASCELN
Take B4: the binding result in assay [5] and in assay [6] was “binds” each time.
